Values joined by “and” are separate entries in the source; they are usually repeats but may differ in a detail not shown here. Equal values may be shown once. Out of some 73,000 compounds screened, about 1,800 (2.5%) were called active. About 13% were inconclusive and are not listed. Calls come from the whole dose curve; as a rule, active = well fitted activation curve with a large enough effect; inconclusive = small, poorly fitted or top-dose-only effect; inactive = no such curve, though single readings can be large or run the other way. This is a selection; strong and weak results do not stand in their true shares.
Test: qHTS Assay for Agonists of the Thyroid Stimulating Hormone Receptor: Activators of Intracellular cAMP Concentrations in Parental HEK 293; note: nearly all actives have a fitted effect of over 55% in size; for activation: % of control where 0% means no effect
Details: parental HEK293 CNG cAMP sensor, membrane potential fluorescence; series mostly up to 57.1 µM; activation: at the top concentration
In short: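 Parental HEK 293 cells stably expressing a cAMP-gated CNG channel were loaded with membrane potential dye containing 100 uM RO 20-1724 for 60 min. Compound added for 30 min; depolarization read as fluorescence intensity at 590 nm.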
Potency is the fitted concentration of half-maximal effect.

SMILES	Potency	activation
CCC1CCc2c(sc3ncnc(N4CCOCC4)c23)C1 (stereo not given)	active: 31.6 µM	–
O=C1NCC2(CCN(CCc3ccccc3)CC2)O1	–	inactive: 0.246%
O=C(O)CCCC[C@H]1CCSS1	–	inactive: 15.5%
Cc1cc(C)n(-c2ccn(Cc3ccc(Cl)cc3Cl)c(=O)n2)n1	active: 15.8 µM	–
Cc1cc(C)n(-c2nc(NCC3CCCO3)c3c4c(sc3n2)COC(C)(C)C4)n1 (stereo not given)	active: 25.1 µM	–
N=c1c(C(=O)NCc2ccc3c(c2)OCO3)cc2c(=O)n3ccccc3nc2n1Cc1cccnc1	–	inactive: -80.7%
CCC1(c2ccccc2)C(=O)NCNC1=O	inactive	–
C[C@@H](C(=O)Nc1ccc2ccccc2c1)[C@H]1C[C@]1(C)[C@H](NC(=O)c1ccccc1)c1ccccc1	–	inactive: 10.6%
Cc1cc(C(=O)OCc2nnc(-c3ccccc3)o2)c(C)n1-c1ccccc1	active: 12.6 µM	–
Cn1c(=O)[nH]c(=O)c2[nH]c(N(Cc3ccccc3)Cc3ccccc3)nc21	–	inactive: -35.7%
CC(=O)c1c(C)nc(C)nc1NC(=O)Cc1ccccc1	–	inactive: -2.25%
CCCC(c1nnnn1C1CCCC1)N1CCN(c2ccccc2F)CC1 (stereo not given)	active: 5.01 µM	–
CN1CCN(c2ncc3nc(-c4cn(C)c5ccccc45)c(=O)n(CCC#N)c3n2)CC1	–	inactive: -36.9%
O=C(OCC#CCSc1nnc(-c2cccc3ccccc23)o1)c1cccs1	–	inactive: 23.7%
CC1=NS(=O)(=O)c2cc(Cl)ccc2N1	–	inactive: -4.19%
CC[C@H]1OC(=O)[C@H](C)[C@@H](O[C@H]2C[C@@](C)(OC)[C@@H](O)[C@H](C)O2)[C@H](C)[C@@H](O[C@@H]2O[C@H](C)C[C@H](N(C)C)[C@H]2O)[C@](C)(O)C[C@@H](C)CN(C)[C@H](C)[C@@H](O)[C@]1(C)O	–	inactive: -30.5%
CCCC[C@@H]1C[C@H]1C(NC(=O)c1ccco1)c1ccc(Cl)cc1 (stereo not given in full)	active: 15.8 µM	–
CCCn1c(-c2ccc(F)cc2)nc2c(NCC3CCCN3CC)nc(C)nc21 (stereo not given)	active: 15.8 µM	–
CCCOC(=O)c1ccc(O)cc1	inactive	–
Cc1ccc(-c2cc(C(F)(F)F)nn2-c2ccc(S(N)(=O)=O)cc2)cc1	–	inactive: -35%

SMILES	Potency	activation
CN1C(=O)Cn2c1nc1ccccc12	active: 20 µM	–
O=C1CC[C@H](N2C(=O)c3ccccc3C2=O)C(=O)N1	inactive	–
Cc1occc1C(=O)NCCCCNC(=O)c1ccoc1C	–	inactive: -37.4%
CCn1c(=O)c2c3c(sc2n2c(SCc4ccc(F)cc4)nnc12)CCCC3	–	inactive: -58.3%
COC(=O)[C@@]1(Cc2ccccc2)[C@H]2c3cc(C(=O)N4CCCC4)n(Cc4cc(F)cc5c4OCOC5)c3C[C@H]2CN1C(=O)c1ccccc1	active: 2.51 µM	–
CO/N=C(/C(=O)N[C@@H]1C(=O)N2C(C(=O)O)=C(COC(N)=O)CS[C@H]12)c1ccco1	–	inactive: -20.4%
Cc1nnc(SCC(=O)N2CCOCC2)n1C	–	inactive: 10.7%
CNc1ncnc2c1ncn2[C@@H]1O[C@@H](CO)[C@H](O)[C@@H]1O	–	inactive: -18.3%
Cc1nc2ncnn2c(C)c1CCC(=O)N1CCN(c2ccccn2)CC1	–	inactive: 10%
COC(=O)[C@H](Cc1ccccc1)NC(=O)[C@@H](N)CC(=O)O	–	inactive: -16.9%
COc1cc(NC(=O)c2ccco2)c(OC)cc1NC(=O)Nc1ccc(Cl)cc1	–	inactive: -56.7%
CCC(C)(C)OC	–	inactive: -4.14%
COCCN(C(=O)Cn1nnc2ccccc21)C(C(=O)NC1CCCC1)c1cc(OC)ccc1OC (stereo not given)	active: 25.1 µM	–
Cc1noc(C)c1CSc1nc2ccccc2c(=O)n1-c1ccc(F)cc1F	active: 15.8 µM	–
Cn1cnc(S(=O)(=O)Nc2ccc(C(F)(F)F)cc2)c1	–	inactive: -60.6%
CCN(CC)S(=O)(=O)c1cccc(-c2nnc(SCCOc3ccccc3C)o2)c1	active: 15.8 µM	–
CCSC1=C(C#N)C(c2ccc(Cl)cc2)C2=C(CCCC2=O)N1 (stereo not given)	–	inactive: -129%
Cc1ccc(C)c2[nH]c(=O)c(CN(CC3CCCO3)C(=O)NC3CCCCC3)cc12 (stereo not given)	active: 3.98 µM	–
COC(=O)c1[nH]c2ccc(C)cc2c1NC(=O)C(C)N1CCN(C2CCCCC2)CC1 (stereo not given)	–	inactive: -57.1%
Cc1ccc(C(C)(C)C)cc1	–	inactive: 6.25%

SMILES	Potency	activation
COC(=O)c1c(NC(=O)c2ccco2)sc(C(=O)Nc2ccc(F)cc2)c1C	active: 25.1 µM	–
COc1ccc2cc(C3(C)NC(=O)N(CC(=O)NCc4ccco4)C3=O)ccc2c1 (stereo not given)	–	inactive: -13.4%
N=C(N)SCCN	–	inactive: 0.0298%
CCCCOC(=O)c1ccc(O)cc1	inactive	–
Cc1cc(NC(=O)COc2ccc(N(C)S(=O)(=O)c3ccccc3)cc2)no1	–	inactive: 23.7%
COC(=O)[C@@]1(Cc2ccc(F)cc2)[C@H]2c3cc(C(=O)N4CCCC4)n(Cc4ccc(OC(F)(F)F)cc4)c3C[C@H]2CN1C(=O)c1ccccc1	active: 1.58 µM	–
N#CC1=C(N)N2C(=C(C#N)C13CCCCC3)SC1CCCCC12O (stereo not given)	–	inactive: -31.7%
CCC(C)c1ccccc1O (stereo not given)	–	inactive: -8.93%
N#Cc1cc2c(nc1SCC(=O)Nc1nccs1)CCCCC2	active: 20 µM	–
COC(=O)[C@@H]1C[C@H]1[C@@H](NS(=O)(=O)c1ccc(-c2ccccc2)cc1)c1ccccc1	–	inactive: 13.8%
Nc1c2c(nc3ccccc13)CCC2	–	inactive: -84.1%
CC1CCC2C(=O)N3C(CCC(C)[C@@H]3c3ccc(Br)cc3)C(=O)N2C1c1ccc(Br)cc1 (stereo not given in full)	–	inactive: -4.77% [at 11.4 µM]
CCc1cc(=O)oc2cc3oc(C)c(C)c3cc12	active: 25.1 µM	–
COc1ccc(C2=CC(c3c(C)nn(-c4ccccc4)c3Cl)n3nnnc3N2)cc1OC (stereo not given)	–	inactive: 18.1%
COc1ccc2nc3cc(Cl)ccc3c(Nc3ccc(O)c(CN4CCN(C)CC4)c3)c2c1	–	inactive: -30.8% [at 11.4 µM]
CC1CN2C(CCC(C)C2c2ccc(Br)cc2)C(=O)O1 (stereo not given)	–	inactive: -4.26% [at 11.4 µM] and inactive: 11% [at 11.4 µM] and inactive: 4.51% [at 11.4 µM]
Cc1c(C(=O)OC(C)C)[nH]c2c1C(=O)CCC2	–	inactive: 7.05%
COC(=O)[C@@]1(Cc2ccc(OC)cc2)[C@H]2c3cc(C(=O)N4CCCC4)n(Cc4ccc(OC(F)(F)F)cc4)c3C[C@H]2CN1C(=O)c1ccccc1	active: 2.51 µM	–
COc1ccc2cc3[n+](cc2c1OC)CCc1cc2c(cc1-3)OCO2	inactive	–
Nc1ncnc2c1ncn2[C@H]1CC[C@@H](CO)O1	–	inactive: -9.22%
